Reference: the supplement of paper PMC4967469
By IC50 is meant the dose at which the fit gives 50% viability; fits outside the tested doses are given as limits. AUC, from the same fit, is the share of area under the viability curve across the 256-fold dose range: 1 means no effect, lower means more sensitive. For part of these data: A top dose marked as inferred comes from the curve model; the source does not state it.

How the values were obtained:
Test in all cases: Viability of human cancer cell lines after 72 h of drug (GDSC screen)
Dimethyloxalylglycine = compound: COC(=O)CNC(=O)C(=O)OC [Dimethyloxalylglycine]; details: top dose 4000 µM; top dose inferred
Method: (§1)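 Human cancer cell lines in 384-well plates, medium with 10% serum, drug for 72 h over a 256-fold dose range (nine 2-fold or five 4-fold steps up to the top dose). Adherent lines were fixed and stained with the nucleic acid dye Syto60, suspension lines read with resazurin; signal relative to control wells, capped at 0 and 100%. One two-parameter sigmoid per drug and line, fitted in a mixed model over all curves with the slope shared within a line.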

UNC1215 = compound: O=C(c1ccc(C(=O)N2CCC(N3CCCC3)CC2)c(Nc2ccccc2)c1)N1CCC(N2CCCC2)CC1 [UNC1215]; details: top dose 1 µM; top dose inferred
Method: as §1

17-AAG = compound: C=CCNC1=C2C[C@@H](C)C[C@H](OC)[C@H](O)[C@@H](C)/C=C(\C)[C@H](OC(N)=O)[C@@H](OC)/C=C\C=C(/C)C(=O)NC(=CC1=O)C2=O [17-AAG]; details: top dose 1 µM
Method: as §1

Doxorubicin = compound: COc1cccc2c1C(=O)c1c(O)c3c(c(O)c1C2=O)C[C@@](O)(C(=O)CO)C[C@@H]3O[C@H]1C[C@H](N)[C@H](O)[C@H](C)O1 [Doxorubicin]; details: top dose 1.024 µM
Method: as §1

TG101348 = compound: Cc1cnc(Nc2ccc(OCCN3CCCC3)cc2)nc1Nc1cccc(S(=O)(=O)NC(C)(C)C)c1 [TG101348]; details: top dose 10.24 µM
Method: as §1

Vismodegib = compound: CS(=O)(=O)c1ccc(C(=O)Nc2ccc(Cl)c(-c3ccccn3)c2)c(Cl)c1 [Vismodegib]; details: top dose 10 µM; top dose inferred
Method: as §1

VX-11e = compound: Cc1cnc(Nc2ccc(F)cc2Cl)nc1-c1c[nH]c(C(=O)N[C@H](CO)c2cccc(Cl)c2)c1 [VX-11e]; details: top dose 5.12 µM; top dose inferred
Method: as §1

BIX02189 = compound: CN(C)Cc1cccc(N=C(c2ccccc2)c2c(O)[nH]c3cc(C(=O)N(C)C)ccc23)c1 [BIX02189]; details: top dose 20 µM; top dose inferred
Method: as §1

OSI-027 = compound: COc1cccc2cc(-c3nc([C@H]4CC[C@H](C(=O)O)CC4)n4ncnc(N)c34)[nH]c12 [OSI-027]; details: top dose 20 µM
Method: as §1

CCT018159 = compound: CCc1cc(-c2n[nH]c(C)c2-c2ccc3c(c2)OCCO3)c(O)cc1O [CCT018159]; details: top dose 10 µM; top dose inferred
Method: as §1

Row | Cell Line | AUC (Dimethyloxalylglycine) | IC50 (Dimethyloxalylglycine) [µM] | AUC (UNC1215) | IC50 (UNC1215) [µM] | AUC (17-AAG) | IC50 (17-AAG) [µM] | AUC (Doxorubicin) | IC50 (Doxorubicin) [µM] | AUC (TG101348) | IC50 (TG101348) [µM] | AUC (Vismodegib) | IC50 (Vismodegib) [µM] | AUC (VX-11e) | IC50 (VX-11e) [µM] | AUC (BIX02189) | IC50 (BIX02189) [µM] | AUC (OSI-027) | IC50 (OSI-027) [µM] | AUC (CCT018159) | IC50 (CCT018159) [µM]
1 | COLO-824 (breast, adherent) | 0.793 | 1880 | 0.984 | > 1 | 0.626 | 0.14 | 0.932 | > 1.02 | 0.817 | 5.89 | 0.985 | > 10 | 0.974 | > 5.12 | 0.972 | > 20 | 0.844 | 14.8 |  | 
2 | DB (B-cell lymphoma, suspension) | 0.278 | 53.5 | 0.97 | > 1 | 0.891 | > 1 | 0.638 |  | 0.751 | 3.76 | 0.92 | > 10 | 0.878 | > 5.12 | 0.796 | 10.8 | 0.497 | 1.23 |  | 
3 | DOHH-2 (B-cell lymphoma, suspension) | 0.504 | 256 |  |  | 0.977 | > 1 | 0.327 | 0.0214 |  |  | 0.977 | > 10 |  |  |  |  |  |  |  | 
4 | G-292 Clone A141B1 (osteosarcoma, adherent) | 0.384 | 99.3 | 0.972 | > 1 | 0.893 | > 1 | 0.877 | > 1.02 | 0.655 | 2.23 | 0.975 | > 10 | 0.976 | > 5.12 | 0.946 | > 20 | 0.743 | 9.69 |  | 
5 | Hep 3B2_1-7 (liver, adherent) | 0.347 | 94 | 0.985 | > 1 | 0.891 | > 1 | 0.411 | 0.0365 | 0.942 | > 10.2 | 0.976 | > 10 | 0.694 | 1.12 | 0.975 | > 20 | 0.837 | 13.4 |  | 
6 | IGR-37 (melanoma, adherent) |  |  | 0.988 | > 1 | 0.292 | 0.0172 | 0.478 | 0.0561 | 0.989 | > 10.2 | 0.988 | > 10 | 0.68 | 0.969 |  |  |  |  | 0.895 | > 10
7 | KOPN-8 (B-cell leukaemia, suspension) | 0.738 | 1060 | 0.985 | > 1 | 0.739 | 0.267 | 0.398 | 0.0351 | 0.523 | 0.733 | 0.967 | > 10 | 0.873 | 3.77 | 0.866 | 13.7 | 0.138 | 0.118 |  | 
8 | LN-405 (glioma, adherent) | 0.727 | 1330 | 0.981 | > 1 | 0.719 | 0.31 | 0.883 | > 1.02 | 0.946 | > 10.2 | 0.977 | > 10 | 0.978 | > 5.12 | 0.981 | > 20 | 0.45 | 0.884 |  | 
9 | MHH-NB-11 (neuroblastoma, adherent) | 0.867 | > 4000 |  |  | 0.932 | > 1 | 0.691 | 0.234 | 0.758 | 3.87 | 0.932 | > 10 | 0.893 | > 5.12 | 0.859 | 19.3 | 0.743 | 6.74 |  | 
10 | MKN1 (stomach, adherent) | 0.773 | 1640 | 0.985 | > 1 | 0.832 | 0.684 | 0.291 | 0.0159 | 0.86 | 9.31 |  |  | 0.986 | > 5.12 | 0.972 | > 20 | 0.766 | 7.77 | 0.913 | > 10
11 | MS751 (cervix, adherent) | 0.529 | 298 | 0.989 | > 1 | 0.651 | 0.158 | 0.774 | 0.371 | 0.938 | > 10.2 | 0.986 | > 10 | 0.987 | > 5.12 | 0.987 | > 20 | 0.926 | > 20 |  | 
12 | MZ7-mel (melanoma, adherent) | 0.402 | 133 | 0.985 | > 1 | 0.606 | 0.124 | 0.588 |  | 0.981 | > 10.2 |  |  | 0.536 | 0.402 | 0.894 | > 20 | 0.626 | 2.82 | 0.971 | > 10
13 | NCI-H838 (lung adenocarcinoma, adherent) | 0.729 | 1160 | 0.985 | > 1 | 0.456 | 0.047 | 0.747 | 0.338 | 0.982 | > 10.2 | 0.987 | > 10 | 0.983 | > 5.12 | 0.962 | > 20 | 0.964 | > 20 |  | 
14 | NCI-H2030 (lung adenocarcinoma, adherent) | 0.382 | 113 | 0.981 | > 1 | 0.477 | 0.0536 | 0.375 | 0.0276 | 0.812 | 6.43 |  |  | 0.939 | > 5.12 | 0.918 | > 20 | 0.539 | 1.62 | 0.765 | 4.14
15 | NCI-H2085 (lung adenocarcinoma, adherent) | 0.445 | 174 | 0.985 | > 1 | 0.962 | > 1 | 0.68 | 0.214 | 0.912 | > 10.2 |  |  | 0.956 | > 5.12 | 0.948 | > 20 | 0.444 | 0.866 | 0.96 | > 10
